Laboratory results reported in publication PMC12820563.
Some of the results follow. The list includes weakly bound sequences.

Molecular target: T1, MBP-FoxP3dN (UniProt Q99JB6)
T1 sequence: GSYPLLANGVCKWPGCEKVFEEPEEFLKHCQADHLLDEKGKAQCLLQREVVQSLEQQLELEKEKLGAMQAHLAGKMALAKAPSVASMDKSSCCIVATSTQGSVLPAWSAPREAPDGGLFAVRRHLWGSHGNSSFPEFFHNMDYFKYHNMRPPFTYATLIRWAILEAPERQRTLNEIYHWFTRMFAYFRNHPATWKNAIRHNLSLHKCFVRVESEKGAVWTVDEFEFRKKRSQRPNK
Test: PD-seq (MBP pull-down with sequencing)
Conditions: 20 mM Tris-HCl pH 7.5, 100 mM NaCl, 1.5 mM MgCl2, 0.4 uM protein, 0.1 uM dsDNA library, 30 min, room temperature, amylose pull-down; high values mean tight binding; double strand, one strand shown

Sequence | binding signal (RPM ratio (pull-down/input))
GATGATTGTTCTCCCAGCTGATGAATTCAATATTTCGAGTAAACAAATTTTCCTAATCTTTCTGTTCAAGCGCCATCTAC | 1.46
GATGATTGTTCTCCCAGCTGATGAATTTCCGAGCTCGAGTAAACAAATTTTCCTAATCTTTCTGTTCAAGCGCCATCTAC | 0.209
GATGATTGTTCTCCCAGCTGATGAATTTTGGTATTCGAGTAAACAAATTTTCCTAATCTTTCTGTTCAAGCGCCATCTAC | 2.09
GATGATTGTTCTCCCAGCTGATGAATTCCTATCATCGAGTAAACAAATTTTCCTAATCTTTCTGTTCAAGCGCCATCTAC | 0.429
GATGATTGTTCTCCCAGCTGATGAATTGTTTACCTCGAGTAAACAAATTTTCCTAATCTTTCTGTTCAAGCGCCATCTAC | 7.12
GATGATTGTTCTCCCAGCTGATGAATTTCTCCGTTCGAGTAAACAAATTTTCCTAATCTTTCTGTTCAAGCGCCATCTAC | 0.228
GATGATTGTTCTCCCAGCTGATGAATTGATCATCTCGAGTAAACAAATTTTCCTAATCTTTCTGTTCAAGCGCCATCTAC | 0.761
GATGATTGTTCTCCCAGCTGATGAATTCCGGCCTTCGAGTAAACAAATTTTCCTAATCTTTCTGTTCAAGCGCCATCTAC | 1.34
GATGATTGTTCTCCCAGCTGATGAATTGACATGCTCGAGTAAACAAATTTTCCTAATCTTTCTGTTCAAGCGCCATCTAC | 0.584
GATGATTGTTCTCCCAGCTGATGAATTTGCCCCATCGAGTAAACAAATTTTCCTAATCTTTCTGTTCAAGCGCCATCTAC | 0.477
GATGATTGTTCTCCCAGCTGATGAATTTTGGGAATCGAGTAAACAAATTTTCCTAATCTTTCTGTTCAAGCGCCATCTAC | 0.264
GATGATTGTTCTCCCAGCTGATGAATTTAATTAATCGAGTAAACAAATTTTCCTAATCTTTCTGTTCAAGCGCCATCTAC | 0.514
GATGATTGTTCTCCCAGCTGATGAATTCATTGAGTCGAGTAAACAAATTTTCCTAATCTTTCTGTTCAAGCGCCATCTAC | 0.374
GATGATTGTTCTCCCAGCTGATGAATTTAGCAGTTCGAGTAAACAAATTTTCCTAATCTTTCTGTTCAAGCGCCATCTAC | 1.27
GATGATTGTTCTCCCAGCTGATGAATTACTCATTTCGAGTAAACAAATTTTCCTAATCTTTCTGTTCAAGCGCCATCTAC | 0.457
GATGATTGTTCTCCCAGCTGATGAATTTAGCGACTCGAGTAAACAAATTTTCCTAATCTTTCTGTTCAAGCGCCATCTAC | 2.3
GATGATTGTTCTCCCAGCTGATGAATTAAATGGTTCGAGTAAACAAATTTTCCTAATCTTTCTGTTCAAGCGCCATCTAC | 0.781
GATGATTGTTCTCCCAGCTGATGAATTGGTGCCCTCGAGTAAACAAATTTTCCTAATCTTTCTGTTCAAGCGCCATCTAC | 0.611
GATGATTGTTCTCCCAGCTGATGAATTTTTGACATCGAGTAAACAAATTTTCCTAATCTTTCTGTTCAAGCGCCATCTAC | 0.524
GATGATTGTTCTCCCAGCTGATGAATTTTGTTGTTCGAGTAAACAAATTTTCCTAATCTTTCTGTTCAAGCGCCATCTAC | 8.13
GATGATTGTTCTCCCAGCTGATGAATTACTGAGCTCGAGTAAACAAATTTTCCTAATCTTTCTGTTCAAGCGCCATCTAC | 0.258

Sequence | binding signal (RPM ratio (pull-down/input))
GATGATTGTTCTCCCAGCTGATGAATTTTAACGGTCGAGTAAACAAATTTTCCTAATCTTTCTGTTCAAGCGCCATCTAC | 0.257
GATGATTGTTCTCCCAGCTGATGAATTCCAAGTCTCGAGTAAACAAATTTTCCTAATCTTTCTGTTCAAGCGCCATCTAC | 0.299
GATGATTGTTCTCCCAGCTGATGAATTCGCTGGATCGAGTAAACAAATTTTCCTAATCTTTCTGTTCAAGCGCCATCTAC | 0.251
GATGATTGTTCTCCCAGCTGATGAATTCGGCTGTTCGAGTAAACAAATTTTCCTAATCTTTCTGTTCAAGCGCCATCTAC | 1
GATGATTGTTCTCCCAGCTGATGAATTCGCGCGGTCGAGTAAACAAATTTTCCTAATCTTTCTGTTCAAGCGCCATCTAC | 0.455
GATGATTGTTCTCCCAGCTGATGAATTGTGGAGATCGAGTAAACAAATTTTCCTAATCTTTCTGTTCAAGCGCCATCTAC | 0.339
GATGATTGTTCTCCCAGCTGATGAATTCGGAACGTCGAGTAAACAAATTTTCCTAATCTTTCTGTTCAAGCGCCATCTAC | 0.297
GATGATTGTTCTCCCAGCTGATGAATTACGGGGTTCGAGTAAACAAATTTTCCTAATCTTTCTGTTCAAGCGCCATCTAC | 0.472
GATGATTGTTCTCCCAGCTGATGAATTATGCTGCTCGAGTAAACAAATTTTCCTAATCTTTCTGTTCAAGCGCCATCTAC | 1.27
GATGATTGTTCTCCCAGCTGATGAATTTACGGTCTCGAGTAAACAAATTTTCCTAATCTTTCTGTTCAAGCGCCATCTAC | 0.565
GATGATTGTTCTCCCAGCTGATGAATTCTTCGCCTCGAGTAAACAAATTTTCCTAATCTTTCTGTTCAAGCGCCATCTAC | 0.371
GATGATTGTTCTCCCAGCTGATGAATTCCGATCTTCGAGTAAACAAATTTTCCTAATCTTTCTGTTCAAGCGCCATCTAC | 0.34
GATGATTGTTCTCCCAGCTGATGAATTGACCGCCTCGAGTAAACAAATTTTCCTAATCTTTCTGTTCAAGCGCCATCTAC | 0.524
GATGATTGTTCTCCCAGCTGATGAATTCAATCTATCGAGTAAACAAATTTTCCTAATCTTTCTGTTCAAGCGCCATCTAC | 0.37
GATGATTGTTCTCCCAGCTGATGAATTCAGGTTCTCGAGTAAACAAATTTTCCTAATCTTTCTGTTCAAGCGCCATCTAC | 0.671
GATGATTGTTCTCCCAGCTGATGAATTAATAGAATCGAGTAAACAAATTTTCCTAATCTTTCTGTTCAAGCGCCATCTAC | 0.228
GATGATTGTTCTCCCAGCTGATGAATTCGGCTACTCGAGTAAACAAATTTTCCTAATCTTTCTGTTCAAGCGCCATCTAC | 1.52
GATGATTGTTCTCCCAGCTGATGAATTTGCCACCTCGAGTAAACAAATTTTCCTAATCTTTCTGTTCAAGCGCCATCTAC | 1.98
GATGATTGTTCTCCCAGCTGATGAATTCGCTACTTCGAGTAAACAAATTTTCCTAATCTTTCTGTTCAAGCGCCATCTAC | 0.488
GATGATTGTTCTCCCAGCTGATGAATTCTTTAGTTCGAGTAAACAAATTTTCCTAATCTTTCTGTTCAAGCGCCATCTAC | 0.297
GATGATTGTTCTCCCAGCTGATGAATTGCGATTTTCGAGTAAACAAATTTTCCTAATCTTTCTGTTCAAGCGCCATCTAC | 1.44

Sequence | binding signal (RPM ratio (pull-down/input))
GATGATTGTTCTCCCAGCTGATGAATTTGCGGAGTCGAGTAAACAAATTTTCCTAATCTTTCTGTTCAAGCGCCATCTAC | 0.401
GATGATTGTTCTCCCAGCTGATGAATTGCGAAAGTCGAGTAAACAAATTTTCCTAATCTTTCTGTTCAAGCGCCATCTAC | 0.462
GATGATTGTTCTCCCAGCTGATGAATTTTCCACATCGAGTAAACAAATTTTCCTAATCTTTCTGTTCAAGCGCCATCTAC | 0.34
GATGATTGTTCTCCCAGCTGATGAATTTCAGTAATCGAGTAAACAAATTTTCCTAATCTTTCTGTTCAAGCGCCATCTAC | 0.45
GATGATTGTTCTCCCAGCTGATGAATTGTGAGTCTCGAGTAAACAAATTTTCCTAATCTTTCTGTTCAAGCGCCATCTAC | 2.55
GATGATTGTTCTCCCAGCTGATGAATTAGAGTAGTCGAGTAAACAAATTTTCCTAATCTTTCTGTTCAAGCGCCATCTAC | 0.423
GATGATTGTTCTCCCAGCTGATGAATTAGGGGACTCGAGTAAACAAATTTTCCTAATCTTTCTGTTCAAGCGCCATCTAC | 0.396
GATGATTGTTCTCCCAGCTGATGAATTCTAAAACTCGAGTAAACAAATTTTCCTAATCTTTCTGTTCAAGCGCCATCTAC | 0.213
GATGATTGTTCTCCCAGCTGATGAATTGCGGAAGTCGAGTAAACAAATTTTCCTAATCTTTCTGTTCAAGCGCCATCTAC | 0.427
GATGATTGTTCTCCCAGCTGATGAATTTGCTCTCTCGAGTAAACAAATTTTCCTAATCTTTCTGTTCAAGCGCCATCTAC | 0.488
GATGATTGTTCTCCCAGCTGATGAATTTCGTTTTTCGAGTAAACAAATTTTCCTAATCTTTCTGTTCAAGCGCCATCTAC | 1.82
GATGATTGTTCTCCCAGCTGATGAATTCAATAATTCGAGTAAACAAATTTTCCTAATCTTTCTGTTCAAGCGCCATCTAC | 0.372
GATGATTGTTCTCCCAGCTGATGAATTATGTTACTCGAGTAAACAAATTTTCCTAATCTTTCTGTTCAAGCGCCATCTAC | 3.2
GATGATTGTTCTCCCAGCTGATGAATTCGTCAACTCGAGTAAACAAATTTTCCTAATCTTTCTGTTCAAGCGCCATCTAC | 0.538
GATGATTGTTCTCCCAGCTGATGAATTTTGTAGCTCGAGTAAACAAATTTTCCTAATCTTTCTGTTCAAGCGCCATCTAC | 2.81
GATGATTGTTCTCCCAGCTGATGAATTCATGAAGTCGAGTAAACAAATTTTCCTAATCTTTCTGTTCAAGCGCCATCTAC | 0.221
GATGATTGTTCTCCCAGCTGATGAATTTCTTAAGTCGAGTAAACAAATTTTCCTAATCTTTCTGTTCAAGCGCCATCTAC | 0.196
GATGATTGTTCTCCCAGCTGATGAATTACGTCCTTCGAGTAAACAAATTTTCCTAATCTTTCTGTTCAAGCGCCATCTAC | 0.518
GATGATTGTTCTCCCAGCTGATGAATTCCCTACGTCGAGTAAACAAATTTTCCTAATCTTTCTGTTCAAGCGCCATCTAC | 0.253
GATGATTGTTCTCCCAGCTGATGAATTACCATAGTCGAGTAAACAAATTTTCCTAATCTTTCTGTTCAAGCGCCATCTAC | 0.318
GATGATTGTTCTCCCAGCTGATGAATTGACTTAGTCGAGTAAACAAATTTTCCTAATCTTTCTGTTCAAGCGCCATCTAC | 0.369
